Source: a collection of fitness landscapes (doi:10.1126/science.1257360)
This is one part of the list.

B1: PhoQ; a variant is named by its letters at X, in order, P23837 (parent)
chain: MKKLLRLFFPLSLRVRFLLATAAVVLVLSLAYGMVALIGYSVSFDKTTFRLLRGESNLFYTLAKWENNKLHVELPENIDKQSPTMTLIYDENGQLLWAQRDVPWLMKMIQPDWLKSNGFHEIEADVNDTSLLLSGDHSIQQQLQEVREDDDDAEMTHSVAVNVYPATSRMPKLTIVVVDTIPVELKSSYMVWSWFIYVLSANLLLVIPLLWVAAWWSLRPIEALAKEVRELEEHNRELLNPATTRELTSLVRNLNRLLKSERERYDKYRTTLTDLTHSLKTPLXXLQXXLRSLRSEKMSVSDAEPVMLEQISRISQQIGYYLHRASMRGGTLLSRELHPVAPLLDNLTSALNKVYQRKGVNISLDISPEISFVGEQNDFVEVMGNVLDNACKYCLEFVEISARQTDEHLYIVVEDDGPGIPLSKREVIFDRGQRVDTLRPGQGVGLAVAREITEQYEGKIVAGESMLGGARMEVIFGRQHSAPKDE

Variants of: B1
Test: enrichment ratio after two sorts for PhoP signalling (ratio (wild type AVST 3.29)); higher = more functional
Details: with PhoP (E. coli)

Variant | enrichment ratio
VFLS | ≤ 0.25
MIFP | ≤ 0.25
HMDK | ≤ 0.25
LIVF | ≤ 0.25
KHKI | ≤ 0.25
IDID | ≤ 0.25
VQQW | ≤ 0.25
YPVV | ≤ 0.25
QGNF | ≤ 0.25
NMYQ | ≤ 0.25
FYAG | ≤ 0.25
LQGN | ≤ 0.25
EHMP | ≤ 0.25
FTTE | ≤ 0.25
MMST | 0.699
RDGF | ≤ 0.25
ETML | ≤ 0.25
DEEV | ≤ 0.25
ARNR | ≤ 0.25
KPGM | ≤ 0.25
DDGG | ≤ 0.25
KLLG | ≤ 0.25
KLCS | ≤ 0.25
AVMS | 7.88
FRHI | ≤ 0.25

Variant | enrichment ratio
EDWL | ≤ 0.25
WCKN | ≤ 0.25
TWPA | ≤ 0.25
LYQE | ≤ 0.25
GMIL | ≤ 0.25
YMNC | ≤ 0.25
FEWH | ≤ 0.25
AECH | 16.5
NEML | 0.665
MIWL | 3.25
WYYQ | ≤ 0.25
GTYM | 0.291
VEIN | ≤ 0.25
DEIY | ≤ 0.25
ECMM | ≤ 0.25
YYQQ | ≤ 0.25
GNDK | ≤ 0.25
NYDE | ≤ 0.25
HIVY | ≤ 0.25
PFSR | ≤ 0.25
NRPV | ≤ 0.25
DWYI | ≤ 0.25
QANA | ≤ 0.25
RMVR | ≤ 0.25
YSCQ | 8.57

Variant | enrichment ratio
DCVH | ≤ 0.25
TRDI | ≤ 0.25
AYVL | ≤ 0.25
FFGN | ≤ 0.25
RWCG | ≤ 0.25
ETQN | ≤ 0.25
PEIF | ≤ 0.25
RSIH | ≤ 0.25
RKYS | ≤ 0.25
DGFG | ≤ 0.25
RVWM | ≤ 0.25
FRLE | ≤ 0.25
KLIW | ≤ 0.25
FFAC | ≤ 0.25
FKCK | ≤ 0.25
LKGD | ≤ 0.25
WCAY | ≤ 0.25
QMPA | ≤ 0.25
SAYM | 0.972
KQTL | ≤ 0.25
TGIN | ≤ 0.25
AGMY | 20
LKSL | ≤ 0.25
FTTK | ≤ 0.25
NKFE | ≤ 0.25

Variant | enrichment ratio
WHNM | ≤ 0.25
QTHC | ≤ 0.25
GTIA | ≤ 0.25
QTVT | ≤ 0.25
PEEF | ≤ 0.25
AILF | 2.9
SHAF | ≤ 0.25
HHKK | ≤ 0.25
GKVR | ≤ 0.25
WARS | ≤ 0.25
WPNS | ≤ 0.25
VLHP | ≤ 0.25
KAHA | ≤ 0.25
WIAR | ≤ 0.25
SVAD | ≤ 0.25
AWYS | ≤ 0.25
NKNV | ≤ 0.25
QDQN | ≤ 0.25
WMQS | ≤ 0.25
QTNT | ≤ 0.25
NCTL | ≤ 0.25
AGVF | 8.28
PMEQ | ≤ 0.25
LSDV | ≤ 0.25
APCH | ≤ 0.25

Variant | enrichment ratio
YTSF | ≤ 0.25
NHDA | ≤ 0.25
YNKK | ≤ 0.25
DFCP | ≤ 0.25
ISEF | 0.563
GMMT | ≤ 0.25
HPYE | ≤ 0.25
NICQ | ≤ 0.25
KNKC | ≤ 0.25
RSAM | ≤ 0.25
FGPC | ≤ 0.25
IERN | ≤ 0.25
AHDE | ≤ 0.25
GPKP | ≤ 0.25
YFLR | ≤ 0.25
QNGK | ≤ 0.25
ETPD | ≤ 0.25
RMAC | ≤ 0.25
INEK | ≤ 0.25
IPWE | ≤ 0.25
DFTF | ≤ 0.25
IQTH | ≤ 0.25
GRPM | ≤ 0.25
EYDV | ≤ 0.25
YKES | ≤ 0.25

Variant | enrichment ratio
GICI | 7.05
YTAK | ≤ 0.25
NTLL | 1.47
MKNS | ≤ 0.25
RPYY | ≤ 0.25
GCHF | ≤ 0.25
LFWQ | ≤ 0.25
RIAS | ≤ 0.25
VWDW | ≤ 0.25
SGYR | ≤ 0.25
GINC | ≤ 0.25
MMRF | ≤ 0.25
SMPD | ≤ 0.25
FRTP | ≤ 0.25
MNFT | ≤ 0.25
QAFL | ≤ 0.25
EFNG | ≤ 0.25
SYMQ | ≤ 0.25
DHCR | ≤ 0.25
FSYM | ≤ 0.25
ALDW | ≤ 0.25
IRHK | ≤ 0.25
SCEL | ≤ 0.25
FQIL | ≤ 0.25
MIGF | 11.9

Variant | enrichment ratio
YHPL | ≤ 0.25
DMHK | ≤ 0.25
RTRW | ≤ 0.25
NQRP | ≤ 0.25
RPSQ | ≤ 0.25
HSYW | ≤ 0.25
PRIG | ≤ 0.25
SHAA | ≤ 0.25
LIDF | ≤ 0.25
SLSK | 1.32
LTSM | ≤ 0.25
YEFT | ≤ 0.25
EQMA | ≤ 0.25
YWDV | ≤ 0.25
FSKY | ≤ 0.25
RFDA | ≤ 0.25
YYPS | ≤ 0.25
RQEW | ≤ 0.25
NGHE | ≤ 0.25
AKDR | ≤ 0.25
DPKR | ≤ 0.25
LEAE | ≤ 0.25
QGHF | ≤ 0.25
WEAL | ≤ 0.25
YIDC | ≤ 0.25

Variant | enrichment ratio
LNRT | ≤ 0.25
ECQQ | ≤ 0.25
SPKG | ≤ 0.25
HQNK | ≤ 0.25
HRLA | 0.286
TLHI | ≤ 0.25
TVDH | 4.63
QCNT | ≤ 0.25
WCCH | ≤ 0.25
ERWC | ≤ 0.25
FPHD | ≤ 0.25
FVWP | ≤ 0.25
WSHF | ≤ 0.25
DQGI | ≤ 0.25
ACAF | 3.99
RNWW | ≤ 0.25
VEDY | ≤ 0.25
LCMT | ≤ 0.25
SSVW | ≤ 0.25
AVML | 4.05
